From PubChem BioAssay AID1159614 (National Center for Advancing Translational Sciences (NCATS), 2016)
In all, about 45,000 compounds went through this assay and about 65 (0.1%) were called active. Calls follow the shape of the dose curve; as a rule, active = well fitted activation curve with a large enough effect; inconclusive = small, poorly fitted or top-dose-only effect; inactive = no such curve, though single readings can be large or run the other way. This is one part of the list.

Biological target: Galactocerebrosidase (Homo sapiens) (UniProt P54803)
Experiment: A Novel Cell-Based Assay to Identify Small Molecules for B -Galactocerebrosidase; also: 0% is about no effect; nearly all actives have a fitted effect of over 65% in size
Details: 145M-Twi-hGALC-G270D cells (Twitcher mouse brain line with human GALC G270D), HMU-beta-Gal fluorescence, 48 h; series mostly up to 57.5 µM; activation: at the top concentration
Outline: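 Brain-derived Twitcher mouse 145M-Twi cells stably expressing human GALC-G270D or wild-type GALC, treated live, then residual GALC activity read by fluorescence of HMU-b-Gal substrate (0.1 mM final) in citrate-phosphate buffer pH 5.2 with sodium taurocholate. Signal increase indicates enhancement.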

Sequence of UniProt P54803 (P54803 whole entry, looked up): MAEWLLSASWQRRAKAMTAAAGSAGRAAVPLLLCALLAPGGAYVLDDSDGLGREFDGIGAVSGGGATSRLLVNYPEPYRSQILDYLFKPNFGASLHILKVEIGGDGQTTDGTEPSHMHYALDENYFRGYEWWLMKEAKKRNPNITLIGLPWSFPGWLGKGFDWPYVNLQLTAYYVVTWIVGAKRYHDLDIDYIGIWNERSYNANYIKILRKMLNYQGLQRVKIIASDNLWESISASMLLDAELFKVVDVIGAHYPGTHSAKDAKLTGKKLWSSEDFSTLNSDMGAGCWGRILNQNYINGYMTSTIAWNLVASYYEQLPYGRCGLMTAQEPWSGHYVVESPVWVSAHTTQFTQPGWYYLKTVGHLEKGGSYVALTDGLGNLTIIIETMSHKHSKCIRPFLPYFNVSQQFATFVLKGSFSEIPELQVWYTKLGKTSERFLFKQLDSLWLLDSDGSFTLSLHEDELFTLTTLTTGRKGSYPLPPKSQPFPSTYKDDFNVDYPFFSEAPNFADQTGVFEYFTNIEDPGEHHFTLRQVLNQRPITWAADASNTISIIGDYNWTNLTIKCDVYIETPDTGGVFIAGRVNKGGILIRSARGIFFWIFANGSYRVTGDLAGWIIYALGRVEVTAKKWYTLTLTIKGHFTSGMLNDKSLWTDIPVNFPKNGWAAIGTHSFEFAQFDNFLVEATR

activation, inactive:
O=C(O)CSc1nc2ccc(NC(=O)COc3ccc(Cl)cc3)cc2s1 -17.8%
CC(C)Oc1ccccc1NC(=O)CSc1nccn1C -9.7%
OCCCn1c(-c2ccc(F)cc2)csc1=Nc1ccc(F)cc1 -37.2%
COc1ccc(CNC(=O)CC(c2ccc(OC)cc2)N2Cc3ccccc3C2=O)cc1 (stereo unspecified) -12.8%
COc1cccc(Cc2nc3ccccc3nc2SCC(=O)N2CCCc3ccccc32)c1 28.5%
COC(=O)c1ccc(NC(=O)CSc2nnc3c4ccccc4n(C(C)C)c3n2)cc1 -16.8%
Cc1ccc(NC(=O)c2ccc(CN3CC(=O)N4CCCCC4C3=O)cc2)c(C)c1 (stereo unspecified) -14.2%
Cc1ccc2c(=O)c(C(=O)c3ccc(F)cc3)cn(CC(=O)Nc3ccc4c(c3)OCCO4)c2n1 -9.59%
CCOc1cccc(C(=O)Nc2cc(C)c(O)c(-c3nc4ncccc4o3)c2)c1 -2.78%
CCCNC(=O)CN1C(=O)COc2ccc(S(=O)(=O)N3CCC(C)CC3)cc21 -1.82%
COc1ccc(OC)c(-n2c3c(cc(-c4nc(-c5ccc(Cl)cc5)cs4)c2=O)C(=O)CC(C)(C)C3)c1 -10.5%
O=C(c1ccc2c(c1)N(Cc1ccccc1)C(=O)c1ccccc1S2(=O)=O)N1CCc2ccccc21 -11.5%
Cc1c(NC(=O)C(C)(C)Oc2ccc(Cl)cc2)cccc1-c1nc2ccccc2o1 -17.9%
CCOC(=O)c1c(NC(=O)c2cc(=O)c3cc(C)cc(C)c3o2)sc(C)c1C -11.4%
O=C(CSc1nccn1C1CCCC1)Nc1cc(C(F)(F)F)ccc1Cl -17%
Cc1ccc(-c2nn(CC(=O)NCc3ccccc3)c3c2cnc2ccc(F)cc23)cc1C -18.8%
CCC(=O)N1CCc2cc(S(=O)(=O)NC(Cc3ccccc3)C(=O)Nc3ccccc3C)ccc21 (stereo unspecified) -20.2%
O=S(=O)(c1ccc(Cl)cc1)c1nc(-c2ccco2)oc1SCc1ccccc1F -11.3%
COc1ccccc1CNC(=O)CSc1ccc(-c2sc(-c3ccccc3)nc2C)nn1 -0.963%
CC(C(=O)O)c1ccc(/C=C2\CCCCC2=O)cc1 (stereo unspecified) -16.8%
Cc1cccc(NC(=O)C(=O)NCC(c2ccc3c(c2)OCO3)N2CCN(c3ccccc3)CC2)c1 (stereo unspecified) -8.81%
CCOCCCNC(=O)C(c1ccccc1)N1Cc2ccccc2C1=O (stereo unspecified) -4.12%
O=C(Nc1sc2c(c1C(=O)Nc1ccccc1)CCC2)c1ccc(Br)cc1 2.57%
CC(=O)c1cccc(NS(=O)(=O)c2cc3c(cc2C)n(C)c(=O)c(=O)n3C)c1 -11.4%
COc1ccc(-c2cc(C(F)F)nn2-c2ccc(S(N)(=O)=O)cc2)cc1F -4.22%
Cc1nc2cccnc2n1-c1cccc(C(=O)NCCN(C)C)c1 -5.88%
CC(C)c1nn2c(=O)cc(COC(=O)c3cccs3)nc2s1 -10%
COc1ccccc1CNC(=O)C(C)n1c(=O)cc(-c2ccccc2)c2c(C)nn(C)c21 (stereo unspecified) -6.08%
CC(=O)Nc1ccc2nc3c(=O)n(C)c(=O)n(C)c3nc2c1C -3.46%
CCOC(=O)Cn1c(=O)oc2cc(S(=O)(=O)N3CCN(c4cccc(C)c4)C(C)C3)ccc21 (stereo unspecified) -3.82%
Cc1cccc(OC(=O)c2cc(-c3ccc(C)c(C)c3)on2)c1 -11.8%
COc1ccc(Cl)cc1NC(=O)N1CCN(Cc2cc(=O)n3nc(-c4ccccc4)sc3n2)CC1 -8.02%
O=C1CCSC2(C(=O)N(Cc3ccc(F)cc3)c3ccccc32)N1c1ccc(Cl)cc1 (stereo unspecified) -6.99%
N#Cc1nc(-c2ccc(COc3ccccc3)o2)oc1N1CCN(c2ccccc2)CC1 -14.8%
CCc1ccc(CNC(=O)c2cnc3sc(N4CCOCC4)nn3c2=O)cc1 -12.5%
CCOC(=O)c1c(S(=O)(=O)N2CCCC(C(=O)NCc3cccc(C)c3)C2)c(C)n(C)c1C (stereo unspecified) -16.1%
COCCN(Cc1ccco1)C(=O)c1cc2c(=O)[nH]c3ccc(C)cc3c2s1 -14%
CCOc1ccc2c(c1)c(=O)c(S(=O)(=O)c1ccc(F)cc1)cn2CC(=O)Nc1ccccc1C -12.6%
CCCS(=O)(=O)Nc1cccc(-c2cn3ccc(C)cc3n2)c1 -28.6%
NC1=NC(c2cccc(Cl)c2)n2c(nc3ccccc32)N1 (stereo unspecified) -9.51%
CCOC(=O)c1cnn(-c2ccc(C(=O)Nc3ccc(C(C)=O)cc3)cc2)c1N -15.6%
COc1ccc(C2C=C(c3ccc(Cl)cc3)Nc3nc(-c4ccc(Cl)cc4)nn32)cc1 (stereo unspecified) -8.37%
O=C(CSc1n[nH]c(-c2ccc(F)cc2)n1)NCc1ccccc1Cl 0.32%
CCOc1c(Br)cc(C2CC(=O)Nc3cc4c(cc32)OCO4)cc1OC (stereo unspecified) -25%
COC(=O)c1ccc(NC(=O)CCCC(=O)OCC(=O)c2ccc(Cl)cc2)cc1 -16.7%
COc1ccc(C)cc1NS(=O)(=O)c1c(C(=O)N2CCC(C)CC2)c(C)n(C)c1C -7.73%
Cc1ccc(NC(=O)c2oc3ccc4c(c3c2C)C(=O)CC(C)(C)O4)c(C)c1 7.16%
Cc1ccc(-c2noc(-c3ccc(N4CCN(C)CC4)c([N+](=O)[O-])c3)n2)cc1 -7.6%
O=C(COc1ccccc1)NCC(c1ccc(Cl)cc1)N1CCOCC1 (stereo unspecified) -7.53%
COc1cccc(C(=O)N2c3ncnn3C3(CCCCC3)[C@@H]3CCCC[C@@H]32)c1 -12.5%
COc1ccc(N2CCN(S(=O)(=O)c3ccc(-c4ccno4)cc3OC)CC2)cc1 8.08%
CCCCc1ccc(NC(=O)c2ccc3c(c2)CCN3S(=O)(=O)CC)cc1 -3.84%
Cc1ccccc1OCC(=O)NCC(c1ccc(Cl)cc1)N1CCCCC1 (stereo unspecified) -6.54%
CCOc1ccc(/C=C/c2nc(C#N)c(NC(C)c3ccccc3)o2)cc1 (stereo unspecified) 0.227%
COc1ccc(C)cc1NC(=O)Nc1cccc(OCc2cc(=O)n3ccc(C)cc3n2)c1 -9.34%
Cn1ncc2c(N3CCN(c4ccccc4F)CC3)ncnc21 -9.99%
CCOC(=O)c1ccc(-n2c(CCC(=O)O)ccc2-c2ccccc2)cc1 -9.56%
COc1ccc(C(=O)CC2(O)C(=O)N(Cc3cccc(C(F)(F)F)c3)c3ccccc32)cc1 (stereo unspecified) -5.7%
CC(=O)N1CCc2cc(Br)cc(S(=O)(=O)N3CCC(C(=O)Nc4ccc(C(C)C)cc4)CC3)c21 -12.1%
CN(Cc1ccccc1)S(=O)(=O)c1ccc(NC(=O)c2cc(=O)c3ccccc3o2)cc1 -23.3%
CCc1cccc(C)c1NC(=O)CN1C(=O)C2(SCC(=O)N2c2cccc(F)c2)c2ccccc21 (stereo unspecified) -9.14%
O=C(Cn1ncc2c([nH]c3ccccc32)c1=O)NCCCN1CCN(c2ccccc2)CC1 -14.9%
Cc1cccc(N2CCN(S(=O)(=O)c3cc(C(=O)Nc4ccc(Oc5ccccc5)cc4)ccc3F)CC2)c1C -8.62%
O=c1oc2ccccc2c(N2CCN(c3ccc(F)cc3)CC2)c1CN1CCCC1 -15.3%
COc1ccc(C(=O)COC(=O)c2cc(-c3cccs3)nc3ccccc23)cc1 -19.5%
COc1ccc(OC)c(Nc2sc(C(=O)c3ccccc3)c(N)c2S(=O)(=O)c2ccccc2)c1 -14.4%
Cc1ccccc1NC(=O)Cn1c(=O)n(CCc2ccccc2)c(=O)c2ccccc21 -9.4%
COc1ccc(Br)cc1[C@@H]1Nc2ccc(C(=O)O)cc2[C@@H]2C=CC[C@@H]21 -16.4%
CCOc1ccc(CCNC(=O)CSc2nnnn2-c2ccccc2)cc1OCC -0.195%
CCOC(=O)c1cccc(NC(=O)c2oc3c(c2C)-c2nn(CC)cc2CC3)c1 5.45%
Cc1c(Cl)cccc1-n1ncc(C(=O)NC2CCCCC2)c1C1CCN(C(=O)OC(C)(C)C)CC1 -5.56%
Cc1ccc(CNC(=O)Cc2csc3ccccc23)cc1 -9.49%
COc1ccc(CNC(=O)C(C)n2nc(C)c3c(C)n(-c4ccccc4)nc3c2=O)c(OC)c1 (stereo unspecified) -16.6%
CCc1nn2c(=O)cc(COC(=O)c3ccccc3NC(=O)COc3ccc(C)c(C)c3)nc2s1 -11.7%
CCCCn1cc(S(=O)(=O)c2cc(C)ccc2C)c(=O)c2cc(F)c(F)cc21 19.9%
CC(C(=O)Nc1ccc(OC(F)(F)F)cc1)N1Cc2ccccc2C1=O (stereo unspecified) -0.338%
Cc1oc(-c2ccccc2F)nc1CN1CCC(C(=O)NCCc2ccccc2)CC1 -27%
Cc1ccc(OCC(=O)NCC(c2ccc(Cl)cc2)N2CCOCC2)cc1C (stereo unspecified) -10.2%
Cc1ccn2c(=O)cc(COc3ccc(NC(=O)COc4ccc(C)c(C)c4)cc3)nc2c1 0.629%
CCOc1cc(C2c3c(oc4ccccc4c3=O)C(=O)N2Cc2ccc(OC)cc2)ccc1O (stereo unspecified) -20.6%
O=c1c2ccccc2n(Cc2c(F)cccc2Cl)c(=O)n1CCc1ccccc1 -3.18%
COc1ccc(C)cc1NC(=O)c1cnc2ccc(C)cn2c1=O -20.6%
Cc1cc2c(cc3c(SCc4ccc(Cl)cc4)nncn32)o1 -10.4%
COCCNC(=O)CCCn1c(SCC(=O)c2ccc(Br)cc2)nc2c(sc3ccccc32)c1=O -13.3%
O=C(O)c1ccc2nc(-c3cc4cc(Cl)ccc4oc3=O)[nH]c2c1 -8.44%
COc1ccc(-n2cnc3cc(C(=O)NC4CCCCCC4)ccc32)cc1 -10.4%
CCOC(=O)c1c(C)[nH]c(C)c1S(=O)(=O)N(C)CC(=O)NCc1ccc(Cl)cc1 -7.54%
Cc1ccc(C(=O)c2oc3ccccc3c2NC(=O)Cc2coc3ccc(C)cc23)cc1 -14.1%
Cc1ccc(-c2nc3c4ccccc4n(CC(=O)NCc4ccc(F)cc4)c(=O)n3n2)cc1 -13.3%
Cc1cccc(Nc2c(-c3ccsc3)nc3nc(C)cc(C)n23)c1 -13.2%
O=C(CCCCn1c(=O)c2ccccc2n(Cc2cccc(F)c2)c1=O)NCc1ccc2c(c1)OCO2 -7.61%
CCOc1ccc(CCNC(=O)CCCc2nnc3n(CC)c(=O)c4sccc4n23)cc1 -0.989%
CCSc1ncc(Cl)c(C(=O)Nc2c(C(=O)Nc3ccccc3)oc3ccccc23)n1 -3.95%
O=C(CSc1nccn1-c1cccc(Cl)c1)Nc1cccc2ccccc12 -2.96%
CCc1nn(CC(=O)NCCCN(CC)CC)c(=O)c2cc3occc3n12 -4.12%
COc1cccc(CNC(=O)CN2C(=O)N(c3ccc(C)cc3C)S(=O)(=O)c3ccccc32)c1OC 0.48%
